The record followed here is patent US20140045873A1, “NOVEL MICROBIOCIDES” (SYNGENTA PARTICIPATIONS AG, priority 2010, published 2014).

Some results are limits rather than exact numbers.

The assay has as its system Blumeria graminis f. sp. tritici (Erysiphe graminis f. sp. tritici). The conditions noted are these: in Triticum aestivum, foliar, read-out: control of Blumeria graminis (percent disease control compared to untreated).
For `C/C(=N\OCCCc1cccc(-c2ccccn2)n1)c1cccc(C)n1` [P.01], the pest or weed control at 200 ppm was not below 80%.
For `C/C(=N\OCCCc1cccc(-c2nccc(C)n2)n1)c1cccc(C)n1` [P.02] the value was not below 80%; for `C/C(=N\OCCCc1cccc(-c2ncccn2)n1)c1cccc(C)n1` [P.04], not below 80%; for `C/C(=N\OCCCc1cccc(-c2nc(C)cc(C)n2)n1)c1cccc(C)n1` [P.05], not below 80%.
`C/C(=N\OCCCc1cccc(-c2ccnc(C3CC3)n2)n1)c1cccc(C)n1` [P.07]: the pest or weed control at 200 ppm was not below 80%.
Under `COc1cc(C)nc(-c2cccc(CCCO/N=C(\C)c3cccc(C)n3)n2)c1` [P.11, 1-(6-methyl-pyridin-2-yl)-ethanone-O-[3-(4′-methoxy-6′-methyl-[2,2]bipyridinyl-6-yl)-propyl]-oxime] stands not below 80%.
For `CCOc1cc(C)nc(-c2cccc(CCCO/N=C(\C)c3cccc(C)n3)n2)c1` [P.12] the value was not below 80%; for `COc1cc(C)nc(-c2cccc(CCCO/N=C(\C)c3cc(C)cc(C)n3)n2)c1` [P.13], not below 80%.
Under `C/C(=N\OCCCc1cccc(-c2cc(OCc3ccccc3)cc(C)n2)n1)c1cccc(C)n1` [P.15] stands not below 80%.
For the molecule `C/C(=N\OCCCc1cccc(-c2cc(Cl)cc(C)n2)n1)c1cccc(C)n1` [P.16, 1-(6-methyl-pyridin-2-yl)-ethanone-O-[3-(4′-chloro-6′-methyl-[2,2′]bipyridinyl-6-yl)-propyl]-oxime], the pest or weed control at 200 ppm is not below 80%.
Turning to `CSc1cc(C)nc(-c2cccc(CCCO/N=C(\C)c3cccc(C)n3)n2)c1` [P.17], the pest or weed control at 200 ppm is not below 80%.
As to `C/C(=N\OCCCc1cccc(-c2cc(Br)cc(C)n2)n1)c1cccc(C)n1` [P.18], the pest or weed control at 200 ppm was not below 80%.
Take `C/C(=N\OCCCc1cccc(-c2cc(C)cc(C)n2)n1)c1cccc(C)n1` [P.19]: the pest or weed control at 200 ppm is not below 80%.
In the case of `CC(=O)c1ccc(-c2cccc(CCCO/N=C(\C)c3cccc(C)n3)n2)nc1C` [P.20], the pest or weed control at 200 ppm was not below 80%.
Under `C/C(=N\OCCCc1cccc(-c2cccc(C)n2)n1)c1cccc(C)n1` [P.21] stands not below 80%; under `CON=C(C)c1ccc(-c2cccc(CCCO/N=C(\C)c3cccc(C)n3)n2)nc1C` [P.22], not below 80%.
For `CCON=C(C)c1ccc(-c2cccc(CCCO/N=C(\C)c3cccc(C)n3)n2)nc1C` [P.23] the value was not below 80%; for `C#CCOc1cc(C)nc(-c2cccc(CCCO/N=C(\C)c3cccc(C)n3)n2)c1` [P.24], not below 80%; for `C=CCOc1cc(C)nc(-c2cccc(CCCO/N=C(\C)c3cccc(C)n3)n2)c1` [P.25], not below 80%.
For `CCCOc1cc(C)nc(-c2cccc(CCCO/N=C(\C)c3cccc(C)n3)n2)c1` [P.26], the pest or weed control at 200 ppm was not below 80%.
Under `C/C(=N\OCCCc1cccc(-c2cc(OC(C)C)cc(C)n2)n1)c1cccc(C)n1` [P.27] stands not below 80%; under `CCOc1cc(C)nc(-c2cccc(CCCO/N=C(\C)c3cc(C)cc(C)n3)n2)c1` [P.28], not below 80%; under `C#CCOc1cc(C)nc(-c2cccc(CCCO/N=C(\C)c3cc(C)cc(C)n3)n2)c1` [P.29], not below 80%.
For `C=CCOc1cc(C)nc(-c2cccc(CCCO/N=C(\C)c3cc(C)cc(C)n3)n2)c1` [P.30] the value was not below 80%.
Under `CCCOc1cc(C)nc(-c2cccc(CCCO/N=C(\C)c3cc(C)cc(C)n3)n2)c1` [P.31] stands not below 80%; under `CCc1cc(OC)c(C)c(-c2cccc(CCCO/N=C(\C)c3cccc(C)n3)n2)n1` [P.33], not below 80%.
As to `CCOc1cc(CC)nc(-c2cccc(CCCO/N=C(\C)c3cccc(C)n3)n2)c1C` [P.34], the pest or weed control at 200 ppm is not below 80%.
In the case of `CCCOc1cc(CC)nc(-c2cccc(CCCO/N=C(\C)c3cccc(C)n3)n2)c1C` [P.35], the pest or weed control at 200 ppm was not below 80%.
For `CCc1cc(OC(C)C)c(C)c(-c2cccc(CCCO/N=C(\C)c3cccc(C)n3)n2)n1` [P.36] the value was not below 80%.
Under `C=CCOc1cc(CC)nc(-c2cccc(CCCO/N=C(\C)c3cccc(C)n3)n2)c1C` [P.37] stands not below 80%.
For `C#CCOc1cc(CC)nc(-c2cccc(CCCO/N=C(\C)c3cccc(C)n3)n2)c1C` [P.38] the value was not below 80%; for `CCc1cc(Cl)c(C)c(-c2cccc(CCCO/N=C(\C)c3cccc(C)n3)n2)n1` [P.39], not below 80%.
On to `CCc1cc(SC)c(C)c(-c2cccc(CCCO/N=C(\C)c3cccc(C)n3)n2)n1` [P.40], for which the pest or weed control at 200 ppm is not below 80%.
Regarding `CCc1cc(Br)c(C)c(-c2cccc(CCCO/N=C(\C)c3cccc(C)n3)n2)n1` [P.41], the pest or weed control at 200 ppm was not below 80%.
Under `CCc1ccc(C)c(-c2cccc(CCCO/N=C(\C)c3cccc(C)n3)n2)n1` [P.42] stands not below 80%; under `COc1cc(C)nc(-c2ccc(OC)c(CCCO/N=C(\C)c3cccc(C)n3)n2)c1` [P.43], not below 80%; under `COc1cc(C)nc(-c2cccc(CCCO/N=C(\C)c3nc(C)cc(C)n3)n2)c1` [P.44], not below 80%.
Under `C/C(=N\OCCCc1ccnc(-c2cccc(C)n2)n1)c1cccc(C)n1` [P.45, E-1-(6-methyl-2-pyridyl)-N-[3-[2-(6-methyl-2-pyridyl)pyrimidin-4-yl]propoxy]ethanimine] stands not below 80%.
